# Data reported in the supplement of paper PMC8728848.
# The list shows a part of the results.
# B1: SSP1 (Sclerotinia sclerotiorum), XP_001584968 (protein)
# chain: MGSSHHHHHHSSGLVPRGSHMSLLTTELACTSAPDQVLHLFFQDGQNILEARSPDGGNVWTTQDTIIAKDGDYNGSSMTCYYVDKDANFDNQPSIHLLYMNKDKQLTEKVKRMKGDNPIWEDAKVPDEVRKGPEQYSKLTSGSFNQGTGWNPNGSQWAYFSASKDGKMGIVEIRRTPKDPWHTETILEEKWGDELPGTALACVIGNGKIRVFLQHHDYSIILYENQNNTWHDRGTFIPKDKVQATTPLACTMTKDGSVHLFYVSKSNKIIHCTDGKKEEELINFFPGSKLGATSVENKITLFFRNLNPVNEVGTLENENGSWKHGTTVIPA
# How the values were obtained:
# Experiment in all cases: glycan array binding signal (z-score within array); higher = stronger binding
# Conditions in all cases: glycan notation: IUPAC condensed, linker removed
# [1] = biological target: Neu5Ac(a2-3)Gal(b1-3)GlcNAc6S
# Summary of the method: (§1)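 The binding signal is a Z-score computed within each array. Data were drawn from 3228 arrays in the Consortium for Functional Glycomics database, restricted to those with a known protein sequence. Scores were averaged over arrays of the same protein sequence at different concentrations or buffers, and over linkers, and negative values can be taken as non-binding.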
# [2] = biological target: Neu5Ac(a2-3)Gal(b1-3)[Fuc(a1-4)]GlcNAc
# Summary of the method: as §1
# [3] = biological target: Neu5Ac(a2-3)Gal(b1-3)[Fuc(a1-4)]GlcNAc(b1-3)Gal(b1-3)[Fuc(a1-4)]GlcNAc
# Summary of the method: as §1
# [4] = biological target: Neu5Ac(a2-3)Gal(b1-3)[Fuc(a1-4)]GlcNAc(b1-3)Gal(b1-4)[Fuc(a1-3)]GlcNAc
# Summary of the method: as §1
# [5] = biological target: Neu5Ac(a2-3)Gal(b1-3)[GlcNAc(b1-6)]GalNAc
# Summary of the method: as §1
# [6] = biological target: Neu5Ac(a2-3)Gal(b1-3)[Neu5Ac(a2-6)]GalNAc
# Summary of the method: as §1
# [7] = biological target: Neu5Ac(a2-3)Gal(b1-3)[Neu5Ac(a2-6)]GlcNAc(b1-3)[Fuc(a1-3)[Gal(b1-4)]GlcNAc(b1-6)]Gal(b1-4)Glc
# Summary of the method: as §1
# [8] = biological target: Neu5Ac(a2-3)Gal(b1-3)]Neu5Ac(a2-3)Gal(b1-4)]GlcNAc
# Summary of the method: as §1
# Neu5Ac(a2-3)Gal(b1-4)Glc = biological target: Neu5Ac(a2-3)Gal(b1-4)Glc
# Summary of the method: as §1
# [9] = biological target: Neu5Ac(a2-3)Gal(b1-4)GlcNAc
# Summary of the method: as §1
# [10] = biological target: Neu5Ac(a2-3)Gal(b1-4)GlcNAc(b1-2)Man
# Summary of the method: as §1
# [11] = biological target: Neu5Ac(a2-3)Gal(b1-4)GlcNAc(b1-2)Man(a1-3)[GlcNAc(b1-4)][Neu5Ac(a2-3)Gal(b1-4)GlcNAc(b1-2)Man(a1-6)]Man(b1-4)GlcNAc(b1-4)GlcNAc
# Summary of the method: as §1
# [12] = biological target: Neu5Ac(a2-3)Gal(b1-4)GlcNAc(b1-2)Man(a1-3)[Neu5Ac(a2-3)Gal(b1-4)GlcNAc(b1-2)Man(a1-6)]Man(b1-4)GlcNAc(b1-4)GlcNAc
# Summary of the method: as §1
# [13] = biological target: Neu5Ac(a2-3)Gal(b1-4)GlcNAc(b1-2)Man(a1-3)[Neu5Ac(a2-3)Gal(b1-4)GlcNAc(b1-2)Man(a1-6)]Man(b1-4)GlcNAc(b1-4)[Fuc(a1-6)]GlcNAc
# Summary of the method: as §1
# [14] = biological target: Neu5Ac(a2-3)Gal(b1-4)GlcNAc(b1-2)Man(a1-3)[Neu5Ac(a2-6)Gal(b1-4)GlcNAc(b1-2)Man(a1-6)]Man(b1-4)GlcNAc(b1-4)GlcNAc
# Summary of the method: as §1
# [15] = biological target: Neu5Ac(a2-3)Gal(b1-4)GlcNAc(b1-2)[Neu5Ac(a2-3)Gal(b1-4)GlcNAc(b1-4)]Man(a1-3)[GlcNAc(b1-4)][Neu5Ac(a2-3)Gal(b1-4)GlcNAc(b1-2)[Neu5Ac(a2-3)Gal(b1-4)GlcNAc(b1-6)]Man(a1-6)]Man(b1-4)GlcNAc(b1-4)GlcNAc
# Summary of the method: as §1
# [16] = biological target: Neu5Ac(a2-3)Gal(b1-4)GlcNAc(b1-2)[Neu5Ac(a2-3)Gal(b1-4)GlcNAc(b1-4)]Man(a1-3)[GlcNAc(b1-4)][Neu5Ac(a2-3)Gal(b1-4)GlcNAc(b1-4)Man(a1-6)]Man(b1-4)GlcNAc(b1-4)GlcNAc
# Summary of the method: as §1
# [17] = biological target: Neu5Ac(a2-3)Gal(b1-4)GlcNAc(b1-2)[Neu5Ac(a2-3)Gal(b1-4)GlcNAc(b1-6)]Man(a1-6)[Neu5Ac(a2-3)Gal(b1-4)GlcNAc(b1-2)Man(a1-3)]Man(b1-4)GlcNAc(b1-4)GlcNAc
# Summary of the method: as §1
# [18] = biological target: Neu5Ac(a2-3)Gal(b1-4)GlcNAc(b1-2)[Neu5Ac(a2-3)Gal(b1-4)GlcNAc(b1-6)]Man(a1-6)[Neu5Ac(a2-3)Gal(b1-4)GlcNAc(b1-2)Man(a1-3)][GlcNAc(b1-4)]Man(b1-4)GlcNAc(b1-4)GlcNAc
# Summary of the method: as §1
# [19] = biological target: Neu5Ac(a2-3)Gal(b1-4)GlcNAc(b1-3)Gal
# Summary of the method: as §1
# [20] = biological target: Neu5Ac(a2-3)Gal(b1-4)GlcNAc(b1-3)Gal(b1-3)GlcNAc
# Summary of the method: as §1
# [21] = biological target: Neu5Ac(a2-3)Gal(b1-4)GlcNAc(b1-3)Gal(b1-4)GlcNAc
# Summary of the method: as §1
# [22] = biological target: Neu5Ac(a2-3)Gal(b1-4)GlcNAc(b1-3)Gal(b1-4)GlcNAc(b1-2)Man(a1-3)[Neu5Ac(a2-3)Gal(b1-4)GlcNAc(b1-3)Gal(b1-4)GlcNAc(b1-2)Man(a1-6)]Man(b1-4)GlcNAc(b1-4)GlcNAc
# Summary of the method: as §1
# [23] = biological target: Neu5Ac(a2-3)Gal(b1-4)GlcNAc(b1-3)Gal(b1-4)GlcNAc(b1-3)Gal(b1-4)GlcNAc
# Summary of the method: as §1
# [24] = biological target: Neu5Ac(a2-3)Gal(b1-4)GlcNAc(b1-3)Gal(b1-4)GlcNAc(b1-3)Gal(b1-4)GlcNAc(b1-2)Man(a1-3)[Neu5Ac(a2-3)Gal(b1-4)GlcNAc(b1-3)Gal(b1-4)GlcNAc(b1-3)Gal(b1-4)GlcNAc(b1-2)Man(a1-6)]GalNAc
# Summary of the method: as §1
# [25] = biological target: Neu5Ac(a2-3)Gal(b1-4)GlcNAc(b1-3)Gal(b1-4)GlcNAc(b1-3)GalNAc
# Summary of the method: as §1
# [26] = biological target: Neu5Ac(a2-3)Gal(b1-4)GlcNAc(b1-3)Gal(b1-4)GlcNAc(b1-3)[Neu5Ac(a2-3)Gal(b1-4)GlcNAc(b1-3)Gal(b1-4)GlcNAc(b1-6)]GalNAc
# Summary of the method: as §1
# [27] = biological target: Neu5Ac(a2-3)Gal(b1-4)GlcNAc(b1-3)Gal(b1-4)GlcNAc(b1-6)[Gal(b1-3)]GalNAc
# Summary of the method: as §1
# [28] = biological target: Neu5Ac(a2-3)Gal(b1-4)GlcNAc(b1-3)Gal(b1-4)[Fuc(a1-3)]GlcNAc
# Summary of the method: as §1
# [29] = biological target: Neu5Ac(a2-3)Gal(b1-4)GlcNAc(b1-3)GalNAc
# Summary of the method: as §1
binder,measurement,setting,value
B1,glycan array binding signal (z-score),[1],0.814
same,glycan array binding signal (z-score),[2],-0.079
same,glycan array binding signal (z-score),[3],0.129
same,glycan array binding signal (z-score),[4],-0.071
same,glycan array binding signal (z-score),[5],-0.307
same,glycan array binding signal (z-score),[6],-0.244
same,glycan array binding signal (z-score),[7],-0.362
same,glycan array binding signal (z-score),[8],-0.352
same,glycan array binding signal (z-score),Neu5Ac(a2-3)Gal(b1-4)Glc,-0.021
same,glycan array binding signal (z-score),[9],-0.112
same,glycan array binding signal (z-score),[10],0.612
same,glycan array binding signal (z-score),[11],-0.476
same,glycan array binding signal (z-score),[12],-0.45
same,glycan array binding signal (z-score),[13],-0.361
same,glycan array binding signal (z-score),[14],-0.401
same,glycan array binding signal (z-score),[15],-0.294
same,glycan array binding signal (z-score),[16],-0.587
same,glycan array binding signal (z-score),[17],0.7
same,glycan array binding signal (z-score),[18],0.02
same,glycan array binding signal (z-score),[19],-0.245
same,glycan array binding signal (z-score),[20],-0.527
same,glycan array binding signal (z-score),[21],0.123
same,glycan array binding signal (z-score),[22],0.071
same,glycan array binding signal (z-score),[23],-0.498
same,glycan array binding signal (z-score),[24],0.167
same,glycan array binding signal (z-score),[25],-0.314
same,glycan array binding signal (z-score),[26],-0.269
same,glycan array binding signal (z-score),[27],-0.525
same,glycan array binding signal (z-score),[28],-0.102
same,glycan array binding signal (z-score),[29],-0.219
